Test results taken from the supplement of paper PMC10126150.
Values marked as one replicate rest on one cluster of the flow cell; about a third of the high ones do not repeat.

Test system: ATP
Experiment: switch fluorescence ratio, 500 uM ATP over buffer (Cy3 cluster intensity, sum of 5 cycles each) (fold (ratio)); higher = stronger signal-on switching upon ATP binding; sequences stand for … in TCGTCGGCAGCGTCAGATGTGTATAAGAGACAGTTTTTTTTTTTTTTTTTTTTTTTTT…TC
Conditions: aptamer strand: ATP DNA aptamer (quencher-CACCTGGGGGAGTATTGCGGAGGAAGG + anchor), 100 nM annealed; ATP concentration: 500 uM; one replicate
How it was run: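 After annealing to 100 nM quencher-labelled ATP aptamer, Cy3-labelled switching-strand clusters on a modified Illumina MiSeq flow-cell were imaged in selection buffer. A second image followed after 15 min with 500 uM ATP at 22 °C, and five such buffer/ATP cycles were done, each separated by NaOH stripping and re-annealing. The fluorescence ratio, averaged per switch-domain sequence, is summed target-cycle over summed buffer-cycle Cy3 intensity per cluster, with clusters outside 100-1000 RFU excluded.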
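Note: ATP exposure 15 min at 22 °C before imaging.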

TCCGCGTTG
switch fluorescence ratio: 1.19

GCAGGGATAG
switch fluorescence ratio: 1.09

AGACGACGTC
switch fluorescence ratio: 0.993

TTAACTAGCC
switch fluorescence ratio: 1.02

ATCAGGACCG
switch fluorescence ratio: 0.983

GTTGAGCGCT
switch fluorescence ratio: 0.944

TCCACGCATA
switch fluorescence ratio: 5.13

AAGCCTCCCT
switch fluorescence ratio: 1.21

TGGTGCGGCA
switch fluorescence ratio: 1.01

CCACTAAACC
switch fluorescence ratio: 1.61

ACAAAATAA
switch fluorescence ratio: 1

TTTTATACAA
switch fluorescence ratio: 0.937

ATGCGGAGTT
switch fluorescence ratio: 0.975

TTTGGGATGA
switch fluorescence ratio: 1.03

AGTTCACAGC
switch fluorescence ratio: 0.999

ATTGTCAGTG
switch fluorescence ratio: 0.997

TCGTCGTTA
switch fluorescence ratio: 0.933

TTAACATGGT
switch fluorescence ratio: 1.05

GAGAACATCG
switch fluorescence ratio: 0.936

TTCCGACAGG
switch fluorescence ratio: 1.14

TCTCCGTCCC
switch fluorescence ratio: 2.45

TAAGGGTTCG
switch fluorescence ratio: 0.922

CTAGTCTGGT
switch fluorescence ratio: 0.955

TAGGCGGTAC
switch fluorescence ratio: 1.95

AATTTATGTT
switch fluorescence ratio: 0.957

TCGATGTAAG
switch fluorescence ratio: 1.04

GAGAAGTGGG
switch fluorescence ratio: 1.01

CCAGGCGGAG
switch fluorescence ratio: 1.04

TACTCCTGT
switch fluorescence ratio: 1.05

GTAAATTGGG
switch fluorescence ratio: 0.959

ACCCTAAGCG
switch fluorescence ratio: 1.1

AAATTGGTT
switch fluorescence ratio: 1.03

GCTATTGAAC
switch fluorescence ratio: 0.991

AGCATAATAG
switch fluorescence ratio: 1.24

CGGGGGCTTA
switch fluorescence ratio: 1.04

CAAGACTTAG
switch fluorescence ratio: 1.04

AGCGAGCTTT
switch fluorescence ratio: 0.978

AGCGGGTGG
switch fluorescence ratio: 1.01

GATGCTTCCT
switch fluorescence ratio: 1.23

TGGCGTGCGC
switch fluorescence ratio: 1.12

GCGGACGTTG
switch fluorescence ratio: 0.996

GGTAAGAAGC
switch fluorescence ratio: 1.08

ACGGAACGGC
switch fluorescence ratio: 1

GGGGGGA
switch fluorescence ratio: 1.04

GCAATGATGA
switch fluorescence ratio: 1.03

AGGCTGTGTT
switch fluorescence ratio: 0.981

CCGTTCTGT
switch fluorescence ratio: 1.02

TTAGATTAG
switch fluorescence ratio: 1

GAGTTGTTTC
switch fluorescence ratio: 0.972

CGTAGATT
switch fluorescence ratio: 0.964

TCCGCCAACT
switch fluorescence ratio: 2.63

GGAGCCGGTG
switch fluorescence ratio: 1.03

TTAGGGTTAA
switch fluorescence ratio: 1.01

TAATGTGTG
switch fluorescence ratio: 0.987

TACGAAGGTT
switch fluorescence ratio: 0.995

TAATGCCCCA
switch fluorescence ratio: 0.945

AAGTTGAGAG
switch fluorescence ratio: 0.96

ATTTGGGCT
switch fluorescence ratio: 1.02

ATCGTATTAG
switch fluorescence ratio: 0.964

GATGCGCGGG
switch fluorescence ratio: 0.971

AGGATTGGC
switch fluorescence ratio: 1.08

AGGACGTGTC
switch fluorescence ratio: 0.92

CGACGGTCTG
switch fluorescence ratio: 1.01

GTTGAGGGCG
switch fluorescence ratio: 1.01

GGAGGACCAC
switch fluorescence ratio: 0.99

TGCCCCAAAG
switch fluorescence ratio: 1

ACATCCGTAG
switch fluorescence ratio: 1.18

GCTTGGGCGG
switch fluorescence ratio: 1.04

TAGGTCGGAC
switch fluorescence ratio: 0.987

GGGTCGC
switch fluorescence ratio: 0.975

ACCTGCGGGA
switch fluorescence ratio: 1.12

GATCTATTGG
switch fluorescence ratio: 1.01

GCTTTGAGCT
switch fluorescence ratio: 0.981

GAGCGTTCGG
switch fluorescence ratio: 0.921

GCTGTAGGAA
switch fluorescence ratio: 1.02

TCGAGCGCTG
switch fluorescence ratio: 1.04

TCGATCAGTA
switch fluorescence ratio: 0.949

GGTGAGCGTG
switch fluorescence ratio: 0.982

ATAAATACCT
switch fluorescence ratio: 1.42

TACGGGGCAA
switch fluorescence ratio: 1.33

GCCATCCCAA
switch fluorescence ratio: 1.53

TCGGACTCAA
switch fluorescence ratio: 2.47

CGTAATATCA
switch fluorescence ratio: 1.13

GCCCCCCTTC
switch fluorescence ratio: 1.01

ATGAGCTGCC
switch fluorescence ratio: 1.1
